# Measured values: PubChem BioAssay AID686978 (National Center for Advancing Translational Sciences (NCATS), 2013)
# In all, about 420,000 compounds went through this assay and about 64,000 (15%) were called active. Inconclusive means that the source gave no clear call. Such entries were picked first, then a sample of the others. The call rests on the fitted dose curve; in most records, active means well fitted inhibition curve with a large enough effect; inconclusive means small, poorly fitted or top-dose-only effect; inactive means flat fitted curve, though single readings scatter. Potencies of inconclusive entries are left out as doubtful fits.
# Assay: qHTS for Inhibitors of human tyrosyl-DNA phosphodiesterase 1 (TDP1): qHTS in cells in absence of CPT; further: nearly all actives have a fitted effect of over 55% in size
# Settings: DT40 Tdp1-/- hTDP1 cells, no CPT, ATP luminescence, 48 h; activity change, negative = growth inhibition: at 46.2 µM (top of the series) unless noted
# Summary of the method: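 Luminescent ATP content (CellTiter-Glo) served as the growth readout. Knockout chicken DT40 cells expressing human TDP1 were exposed to compounds without camptothecin for a minimum 48 hr at 37 °C.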
# On the % scale 0 is the no-effect control and ±100 the full control effect; potency means the concentration at half of the fitted maximal effect; tags describe the fitted curve by direction and shape.
SMILES,Potency,"activity change, negative = growth inhibition"
CCC(C(=O)NCc1ccc(F)cc1)n1nc(C)n2c(cc3occc32)c1=O (centres undefined),inactive,–
CCOc1ccc(OCCCCNC(C)(C)C)cc1,"inconclusive [inhibitor, single point]",–
Cc1cc(C)c2nc(NNC(=O)c3cc(=O)c4ccccc4o3)sc2c1,"inconclusive [inhibitor, single point]",–
CCOc1cc(/C=N/NC(=O)CCc2n[nH]c(=O)[nH]c2=O)ccc1O,inactive,–
CCOc1ccccc1OCCOCCN1CCN(Cc2ccccc2)CC1,"inconclusive [inhibitor, single point]",–
Cc1ccc(CN(C)C(=O)COc2ccc(S(=O)(=O)N3CCCC3)cc2[N+](=O)[O-])c(C)c1,"inconclusive [inhibitor, single point]",–
COc1ccc(NC(=O)Cc2coc3cc(C)ccc23)cc1S(=O)(=O)N1CCOCC1,"inconclusive [inhibitor, partial curve]",–
O=C(Nc1ccc(Cl)cn1)C1COc2ccccc2O1 (centres undefined),inactive,–
O=C(NCCc1ccc(F)cc1)Nc1ccccc1Cl,inactive,–
CCCCNC(=O)c1nn2c(C(F)(F)F)cc(-c3ccc(OC)cc3)nc2c1Br,"inconclusive [inhibitor, full curve, poor fit]",–
Cc1ccc(-c2nnc(SCc3nc(N)nc(Nc4ccccc4C)n3)n2N)cc1,"inconclusive [inhibitor, single point]",–
COc1ccc(CCNC(=O)CCCn2c(=O)c3ccccc3n(CC(=O)Nc3cc(Cl)ccc3C)c2=O)cc1OC,"inconclusive [inhibitor, single point]",–
Cc1cccc(N2CCN(S(=O)(=O)c3cccc4nonc34)CC2)c1C,"inconclusive [inhibitor, single point]",–
COCCn1c(SCc2nc(N)nc(Nc3ccccc3C)n2)nc2ccccc2c1=O,"inconclusive [inhibitor, single point]",–
C/C(=N\NC(=O)COc1cccc2ccccc12)c1cccs1,"inconclusive [inhibitor, single point]",–
O=C(c1ccccc1)c1ccc(O)c(O)c1O,"inconclusive [inhibitor, single point]",–
CCOC(=O)c1c(NC(=O)C2C3C=CC(CC3)C2C(=O)O)sc(C)c1C (centres undefined),"inconclusive [inhibitor, partial curve, poor fit]",–
Cc1ccc(CN2CCSc3ccc(C(=O)NCc4cccnc4)cc32)cc1,"inconclusive [inhibitor, single point]",–
CCOc1ccccc1NC(=O)Cn1c(=O)n(-c2ccc(F)cc2)c(=O)c2sc3ccccc3c21,–,inconclusive: -34.7% [inhibitor]
CCc1ccccc1NC(=O)CN(c1cccc(OC)c1)S(C)(=O)=O,"inconclusive [inhibitor, single point]",–
C[C@@H]1CN([C@H](C)CO)C(=O)CCCn2nncc2CO[C@H]1CN(C)S(=O)(=O)c1ccc(C#N)cc1,inactive,–
CCc1cnc2ccccc2c1/C=C/c1ccc(N(C)C)cc1,"inconclusive [inhibitor, single point]",–
CCOC(=O)CNC(=O)CSc1nnc(-c2cccc(C)c2)n1-c1ccc(OC)cc1,"inconclusive [inhibitor, partial curve, poor fit]",–

SMILES,Potency,"activity change, negative = growth inhibition"
OCCN(Cc1ccccc1)Cc1ccccc1Cl,inactive,–
COc1ccc(Cl)cc1NC(=O)CN1CCN(Cc2ccccc2)CC1,"inconclusive [inhibitor, single point]",–
O=C(COc1ccccc1[N+](=O)[O-])Nc1cccc(S(=O)(=O)NC2=NCCCCC2)c1,"inconclusive [inhibitor, single point]",–
COc1ccc(N(C(=O)C(C)C)S(=O)(=O)c2cccs2)cc1,"inconclusive [inhibitor, single point]",–
COc1ccc(C2=NOC(C(=O)NCc3ccc(F)cc3)C2)cc1 (centres undefined),active: 2.31 µM,–
O=C1CCOc2cc(OCc3ccccc3)ccc21,inactive,–
CCOc1cc(/C=N/O)ccc1OCc1ccccc1F,inactive,–
Cc1ccc2nc(-c3cc(NC(=O)/C=C/c4ccccc4)ccc3Cl)oc2c1,active: 16.4 µM,–
Cc1cccc2cc(CN(Cc3cccs3)C(c3nnnn3C3CCCC3)C(C)C)c(=O)[nH]c12 (centres undefined),inactive,–
O=C(Nc1cccc(OCc2cc(=O)n3c4c(sc3n2)CCCC4)c1)c1ccc(F)cc1,–,inconclusive: -30.9% [inhibitor]
Oc1ccccc1CNc1ccc(OC(F)(F)F)cc1,"inconclusive [inhibitor, single point]",–
COc1ccc(/C=C2\C(=O)NC(=S)N2C(=O)c2ccc(F)cc2)cc1,active: 18.4 µM,–
COc1ccc(C(=O)Nc2ccc3nc(N4CCC(C)CC4)cc(C)c3c2)cc1,active: 16.4 µM,–
COc1cc(Cl)c(C)cc1NC(=O)c1cn(C2CCCC2)c(=O)c2c1c1ccccc1n2C,"inconclusive [inhibitor, full curve, poor fit]",–
COc1ccccc1NC(=O)CCCCCN1C(=O)c2cccc3cccc(c23)C1=O,"inconclusive [inhibitor, single point]",–
CCCNC(=O)N1CCN(C(c2ccccc2)c2ccccc2)CC1,inactive,–
O=C(Nc1cc(S(=O)(=O)N2CCOCC2)ccc1Cl)c1cc([N+](=O)[O-])ccc1Cl,active: 14.6 µM,–
CC(=O)N1c2ccc(S(=O)(=O)N3CCC(C(=O)Nc4cccc(F)c4)CC3)cc2CC1C (centres undefined),"inconclusive [inhibitor, partial curve]",–
COc1ccc(Cl)cc1-n1c(/C=C/c2cccc3ccccc23)nc2ccccc2c1=O,"inconclusive [inhibitor, single point]",–
COc1ccc2[nH]cc(CCNc3ccnc(-c4cccc(NS(C)(=O)=O)c4)n3)c2c1,active: 10.3 µM,–
O=C(CSc1nnc(-c2cccnc2)n1Cc1ccco1)c1ccc2ccccc2c1,"inconclusive [inhibitor, single point]",–
OC[C@H]1O[C@@H](O[C@H]2[C@H](O)[C@@H](O)[C@H](O)O[C@@H]2CO)[C@H](O)[C@@H](O)[C@@H]1O,inactive,–
Cc1ccccc1-n1c(SCC(=O)NCC2CCCO2)nc2c([nH]c3ccccc32)c1=O (centres undefined),"inconclusive [inhibitor, single point]",–

SMILES,Potency,"activity change, negative = growth inhibition"
CC1Cc2cc(/C(O)=C3/C(=O)C(=O)N(CCN4CCOCC4)C3c3ccc(C(C)C)cc3)ccc2O1 (centres undefined),"inconclusive [inhibitor, single point]",–
CC(CC(=O)Nc1ccc(Cl)c([N+](=O)[O-])c1)c1ccccc1 (centres undefined),"inconclusive [inhibitor, single point]",–
CN(C)CCCNS(=O)(=O)c1ccc(-n2nnc3ccccc32)c([N+](=O)[O-])c1,"inconclusive [inhibitor, single point]",–
CC(C)c1ccc(N(CC(=O)NN=C2CCN(C)CC2)S(=O)(=O)c2ccccc2)cc1,–,inconclusive: -30.2% [inhibitor]
O=C(Nc1cccc(Cl)c1)c1cccc(Oc2ccc([N+](=O)[O-])cc2Cl)c1,"inconclusive [inhibitor, single point]",–
CCC(=O)N1CCN(c2c(Cl)cccc2[N+](=O)[O-])CC1,–,inconclusive: -34.3% [inhibitor]
COc1ccc(Cn2c(CCC(=O)Nc3ccccc3)nc3cccnc32)cc1,inactive,–
CCCc1nc2ccccc2n1CCOc1ccccc1,"inconclusive [inhibitor, partial curve]",–
COc1ccc(-c2nc(CSc3nncn4c3cc3occc34)c(C)o2)cc1,active: 23.1 µM,–
Cc1cccc(NC(=O)CN2CCN(C(=O)C3CCN(C(=O)/C=C/c4ccccc4)CC3)CC2)c1C,"inconclusive [inhibitor, single point]",–
Clc1cccc(OCCCN2CCCC2)c1Cl,"inconclusive [inhibitor, single point]",–
COCCNc1nc(Oc2ccc(CC(=O)OC)cc2)c2sc(-c3ccccc3)cc2n1,active: 18.4 µM,–
CCOC(=O)N1CCN(S(=O)(=O)c2ccc(C)cc2)C1c1ccccc1 (centres undefined),"inconclusive [inhibitor, partial curve, poor fit]",–
CCCCCC(=O)N1C[C@@H](O)[C@H](n2cc(-c3ccc(F)cc3)nn2)C[C@@H]1c1ccc(OC)cc1,"inconclusive [inhibitor, single point]",–
CCOC(=O)N1CCc2c(sc3c2C(=O)NC(c2cc(OC)c(OC)c(OC)c2)N3)C1 (centres undefined),active: 5.17 µM,–
CCN(CC)c1ccc(C(=O)NC(=S)N2CCN(Cc3ccc4c(c3)OCO4)CC2)cc1,inactive,–
COc1ccccc1NC(=O)c1c(NCc2ccc(C)o2)sc2c1CCCCC2,active: 6.51 µM,–
COc1ccccc1NC(=O)C1CC(O)CN1C(=O)Oc1ccccc1 (centres undefined),inactive,–
CCc1ccc(NC(=O)Cn2c(=O)n(CCC(C)C)c(=O)c3cccnc32)cc1,"inconclusive [inhibitor, single point]",–
CCOC(=O)Cc1csc(NC(=S)NC(=O)CC(C)C)n1,inactive,–
COc1ccc(-c2cc(C(F)(F)F)n3nc(-c4ccccc4)cc3n2)cc1OC,active: 16.4 µM,–
O=C(OCc1ccccc1)c1ccc(O)cc1,"inconclusive [inhibitor, single point]",–
CCCCCCC1CCC(c2nc(-c3ccncc3)no2)CC1 (centres undefined),"inconclusive [inhibitor, single point]",–
